# Assay results: PubChem BioAssay AID504332 (National Center for Advancing Translational Sciences (NCATS), 2011)
# About 31,000 (8.9%) of roughly 350,000 compounds were called active. Inconclusive results, whose numbers are uncertain, are shown with a selection of clear calls. Calls come from the whole dose curve; as a rule, active = well fitted inhibition curve with a large enough effect; inconclusive = small, poorly fitted or top-dose-only effect; inactive = no such curve, though single readings can be large or run the other way. Potencies beside an inconclusive call are fits to weak or partial responses and may not hold up.
# Molecular target: Histone-lysine N-methyltransferase EHMT2 (Homo sapiens) (UniProt Q96KQ7)
# Chain of UniProt Q96KQ7 (Q96KQ7 whole entry, looked up): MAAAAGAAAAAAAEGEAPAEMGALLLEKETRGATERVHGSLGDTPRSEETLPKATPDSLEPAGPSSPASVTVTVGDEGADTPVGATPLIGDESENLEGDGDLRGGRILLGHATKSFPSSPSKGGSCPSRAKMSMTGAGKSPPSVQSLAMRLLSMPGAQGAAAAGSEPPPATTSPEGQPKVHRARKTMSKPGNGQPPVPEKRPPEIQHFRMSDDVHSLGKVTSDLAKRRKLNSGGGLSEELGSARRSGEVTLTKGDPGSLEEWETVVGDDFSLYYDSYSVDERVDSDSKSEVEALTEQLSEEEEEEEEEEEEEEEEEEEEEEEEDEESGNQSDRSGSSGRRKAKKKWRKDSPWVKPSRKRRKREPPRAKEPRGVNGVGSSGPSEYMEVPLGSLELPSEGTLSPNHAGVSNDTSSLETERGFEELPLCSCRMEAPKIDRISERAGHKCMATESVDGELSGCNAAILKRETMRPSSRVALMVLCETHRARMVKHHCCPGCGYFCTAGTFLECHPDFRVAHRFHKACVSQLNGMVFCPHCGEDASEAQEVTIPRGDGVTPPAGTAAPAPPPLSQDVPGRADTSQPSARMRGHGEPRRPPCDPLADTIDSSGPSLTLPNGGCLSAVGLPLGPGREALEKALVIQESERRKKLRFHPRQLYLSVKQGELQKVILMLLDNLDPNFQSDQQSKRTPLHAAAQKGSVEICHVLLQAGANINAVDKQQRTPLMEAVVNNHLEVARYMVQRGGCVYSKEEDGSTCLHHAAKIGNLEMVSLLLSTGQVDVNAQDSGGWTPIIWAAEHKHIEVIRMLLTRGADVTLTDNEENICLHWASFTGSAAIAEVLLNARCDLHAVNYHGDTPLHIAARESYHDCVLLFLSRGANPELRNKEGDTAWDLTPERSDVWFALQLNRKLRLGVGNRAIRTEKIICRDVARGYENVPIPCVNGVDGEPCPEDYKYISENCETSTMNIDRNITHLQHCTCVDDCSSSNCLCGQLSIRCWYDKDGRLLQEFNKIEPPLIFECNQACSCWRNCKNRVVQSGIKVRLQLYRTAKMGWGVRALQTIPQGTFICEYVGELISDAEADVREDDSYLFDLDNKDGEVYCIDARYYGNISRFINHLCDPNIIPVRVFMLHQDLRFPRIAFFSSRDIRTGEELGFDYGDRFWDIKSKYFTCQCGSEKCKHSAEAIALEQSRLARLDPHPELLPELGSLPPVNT
# Assay: qHTS Assay for Inhibitors of Histone Lysine Methyltransferase G9a; note: nearly all actives have a fitted effect of over 75% in size
# Conditions: G9a H3K9 monomethylation, AlphaScreen, 2 h; activity, negative = inhibition: at 59 µM (top of the series) unless noted
# In short: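 Enzyme 20 nM + cpd, 15 min RT; add b-H3K9 pep 500 nM / SAM 20 uM; 2 h RT; anti-H3K9me1 Ab 0.5 ug/mL + SA donor / anti-rabbit acceptor beads 20 ug/mL each, 10 min; AlphaScreen read.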
# % is set by controls: 0 for no effect and ±100 for the full control effect; potency is the fitted concentration of half-maximal effect; tags give direction and shape of the fitted curve.
SMILES,"activity, negative = inhibition",Potency
C=CCNC(=S)/N=c1/ccccn1CC,inconclusive: -71.2% [inhibitor] [at 12.7 µM],–
CCc1nnc(NC(=O)C2Cc3ccccc3CN2S(=O)(=O)c2ccc(C)cc2)s1 (stereo not given),–,active: 39.8 µM
CCc1ccc(N(C(=O)c2csnn2)C(C(=O)NC(C)(C)C)c2cccnc2)cc1 (stereo not given),–,"inconclusive: 89.1 µM [inhibitor, single point]"
COc1ccccc1NS(=O)(=O)c1cccc(C(=O)NCC(C)(C)N2CCOCC2)c1,inactive: 6.57% [at 12.7 µM],–
Cc1ncsc1CCOC(=O)c1ccccc1,–,"inconclusive: 44.7 µM [inhibitor, partial curve, poor fit]"
COC(=O)C1CCN(C(=O)CC(NC(=O)C(F)(F)F)c2cccs2)CC1 (stereo not given),–,inactive
Clc1ccc(-c2ccc(CNCCSc3nnnn3-c3ccccc3)o2)cc1,–,"inconclusive: 17.8 µM [inhibitor, partial curve]"
CCCCN(C)C(=O)C1CCN(c2ccc(S(=O)(=O)N3CCOCC3)cc2[N+](=O)[O-])CC1,inactive: -1.85% [at 0.501 µM],–
COc1ccc(NC(=O)N2CCC(CN3CCCC3)CC2)c(OC)c1,–,inactive
CCOc1ccc(NC(=O)[C@@H](NC(=O)c2ccccc2)[C@@H](C)CC)cc1,–,"inconclusive: 79.4 µM [inhibitor, single point]"
COc1ccc(OC)c(CN2CCN(C(=O)c3cccs3)CC2)c1,–,active: 8.91 µM
O=C(C1CCCN(S(=O)(=O)c2cccc3nonc23)C1)N1CCN(c2ccccc2F)CC1 (stereo not given),–,"inconclusive: 22.4 µM [inhibitor, partial curve, poor fit]"
Nc1cccc(CCc2ccncc2)c1,–,"inconclusive: 89.1 µM [inhibitor, partial curve, poor fit]"
COc1ccc(OCC(=O)Nc2ccc(S(=O)(=O)N(C)c3ccccc3)cc2)cc1,–,"inconclusive: 35.5 µM [inhibitor, partial curve, poor fit]"
COc1nc(-c2ccc(Cl)cc2)ccc1-c1noc(-c2ccco2)n1,–,active: 2.82 µM
CCNC(=O)c1cccc(NC(=O)c2cc(C3CC3)nc3c2cnn3C(C)C)c1,–,"inconclusive: 56.2 µM [inhibitor, partial curve]"
COc1ccc(S(=O)(=O)N2CCCCCC2)cc1C(=O)OCC(=O)Nc1cc(C)on1,–,"inconclusive: 1 µM [inhibitor, partial curve, poor fit]"
CSc1ccccc1C(=O)Nc1cccc(N(C)S(C)(=O)=O)c1,inconclusive: -52.2% [inhibitor],–
Cc1cccc(NCc2n[nH]c(=S)n2-c2ccccc2)c1,inconclusive: -95.1% [inhibitor] [at 12.7 µM],–
CC1CC1C(=O)OCC(=O)NCc1ccccc1Cl (stereo not given),–,"inconclusive: 2.24 µM [inhibitor, partial curve, poor fit]"
NC(=O)C1CCN(C(=O)C2c3ccccc3C(=O)N3CCc4ccccc4C23)CC1 (stereo not given),–,active: 79.4 µM
O=C(O)C1C2C=CC(C2)C1C(=O)NCc1ccc(Cl)c(Cl)c1 (stereo not given),–,inactive
COc1ccc(/C=C2\C(=O)ON=C2c2ccccc2)cc1OC,–,"inconclusive: 79.4 µM [inhibitor, single point]"

SMILES,"activity, negative = inhibition",Potency
COc1ccc(C2(CNC(=O)C(=O)Nc3ccc(C)c(Cl)c3)CCCC2)cc1OC,–,inactive
COc1c(C)c2c(c(O)c1C/C=C(\C)CCC(=O)O)C(=O)OC2,–,"inconclusive: 10 µM [inhibitor, single point]"
C[N+]1(CC2COC3(CCCCC3)O2)CCCC1 (stereo not given),–,active: 14.1 µM
O=C(O)c1cc(S(=O)(=O)NC(Cc2c[nH]c3ccccc23)C(=O)O)ccc1Cl (stereo not given),–,active: 44.7 µM
COc1ccc(Cn2nnnc2CN2CCc3ccccc3C2)cc1,–,inactive
C/C(CC(=O)Nc1ccc(C)c(Cl)c1)=N\NC(=O)c1ccccn1,–,inactive
CC(=O)OCCCn1c(C)[n+](C)c2cc(Cl)c(Cl)cc21,–,active: 31.6 µM
CC(C)CNC(=O)NC(=O)CSc1nc2ccccc2n1CC(C)C,–,"inconclusive: 31.6 µM [inhibitor, single point]"
CCNc1nc(NC(C)C)nc(N(C#N)C(C)C(=O)N(C)C)n1 (stereo not given),–,"inconclusive: 39.8 µM [inhibitor, single point]"
Cc1cc(O)c(C(c2ccc(F)cc2)N2CCN(c3ccccc3)CC2)c(=O)n1Cc1ccco1 (stereo not given),–,"inconclusive: 39.8 µM [inhibitor, single point]"
CCOc1ccc(S(=O)(=O)NCCSc2ccccc2)cc1,–,inactive
CCCNC(=O)CCCCn1c(=S)[nH]c2c([nH]c3ccc(OC)cc32)c1=O,–,inactive
CCOC(=O)NCc1cc(-c2nn(C)c(=O)c3ccccc23)ccc1C,–,"inconclusive: 20 µM [inhibitor, partial curve, poor fit]"
COc1ccc(C(=O)NN(C)c2nc(-c3ccccc3)cc(C)c2S(C)(=O)=O)cc1,–,"inconclusive: 35.5 µM [inhibitor, partial curve, poor fit]"
Cc1cc(=O)oc2c(C)c(OCC(=O)NCc3ccccn3)ccc12,–,"inconclusive: 89.1 µM [inhibitor, single point]"
C/C(O)=c1/cnc2nc3ccccc3n2c1=O,–,"inconclusive: 14.1 µM [inhibitor, partial curve, poor fit]"
N#Cc1nc(-c2ccc(OCc3ccccc3)cc2)oc1NCc1cccnc1,–,"inconclusive: 28.2 µM [inhibitor, single point]"
Cc1c(C(=O)N2CCN(C(=O)c3ccccc3)CC2)oc2ccc(F)cc12,–,"inconclusive: 10 µM [inhibitor, partial curve, poor fit]"
CCCCCC(=O)Nc1nc2ccccc2[nH]1,–,"inconclusive: 22.4 µM [inhibitor, single point]"
CCOc1ccc(OCC)c(Nc2nc3ccccc3n3nnnc23)c1,–,inactive
Cc1ccc(N/C=C(\[N+](=O)[O-])S(=O)(=O)c2ccccc2)cc1,–,"inconclusive: 79.4 µM [inhibitor, partial curve, poor fit]"
N/C(=N\OC(=O)c1cc([N+](=O)[O-])ccc1Cl)c1cccnc1,–,"inconclusive: 79.4 µM [inhibitor, single point]"
